Test results: PubChem BioAssay AID1919014 (Molecular Pharmacology Branch, DTP, NCI, 2023)
Certain results were filed several times, with different values. This list holds those alone. The source may hold further records. Values given together are repeats across runs, samples, wells, individuals or studies. Marks such as (2×) count equal records among those shown.

Test system: NCI-H1341 complex spheroids, percent test/control
Assay: Anticancer human tumor NCI-H1341 cell line growth inhibition [AhR];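 also: spheroids exposed to agents for seven days before readout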
Settings: for viability, T/C: stronger effect = lower value; for IC50: compound alone
Source text: Multicellular complex tumor spheroid response to aryl hydrocarbon receptor antagonists in combination with a variety of drugs and investigational agents in selected tumor cell lines
The current study was undertaken to assess response to aryl hydrocarbon receptor antagonists in combination with standard-of-care drugs and investigational agents in solid tumor complex spheroid models. Complex spheroids include a stromal component modeled by human endothelial cells (HUVEC) and fibroblasts modeled by human mesenchymal stem cells (MSCs). The concentration ranges selected for each drug and investigational agent were based upon clinically achievable concentrations if the clinical Cmax of the agent was known.
Compounds. The drugs and investigational agents: BAY 2416964 (NSC825713), GNF351 (NSC835774), CH-223191 (NSC835775), CPI-455 (NSC825282), aza-TdCyd (NSC777586), decitabine (NSC127716), belinostat (NSC758774), entinostat (NSC756642), pevonedistat (NSC761192), tazemetostat (NSC777109), talazoparib (NSC765396), olaparib (NSC753686), selinexor (NSC780203), nedisertib (M3814, NSC802822), bortezomib (NSC756655), venetoclax (NSC766270), doxorubicin (NSC123127), elimusertib (BAY189344, NSC800525), ceralasertib (AZD6738, NSC777638), TAK-243 (NSC785004), alisertib (NSC759677), etoposide (NSC141540), topotecan (NSC609699), eribulin (NSC707389), gemcitabine (NSC613327), carboplatin (NSC241240), cisplatin (NSC119875), and SN-38 (NSC673596) were obtained from the National Cancer Institute (NCI) Developmental Therapeutics Program Chemical Repository (32). The FDA-approved anticancer drug set is available from the Developmental Therapeutics Program at https://dtp.cancer.gov/organization/dscb/obtaining/available plates.htm. […] The stock solutions were prepared in dimethyl sulfoxide (DMSO, Sigma-Aldrich, St. Louis, MO, cat. D2650), except for the platinum compounds which were prepared in saline (Quality Biological, Gaithersburg, MD, cat. 114-055-101), at 800-fold the tested concentration and stored at -70 degrees C prior to their use. All drugs and investigational agents were tested over a range starting from a high concentration at or near the clinical Cmax and decreasing in half-log increments. If the clinical Cmax for an agent had not been determined, the highest concentration tested was 10 microM (Table 1).
Cell Culture. All cells were maintained in an incubator at 37 degrees C and 5% CO2 with 95% humidity. The PDC lines were cultured according to standard operating procedures established by the NCI PDMR (https://pdmr.cancer.gov). Briefly, all PDCs were thawed and cultured in Matrigel-coated flasks prepared with a working solution of 1X Ham's F-12 nutrient mix, without supplementation (Invitrogen, Waltham, MA, cat. 11765054), 100 U/mL penicillin-streptomycin (Invitrogen, cat. 15140122), and 2.5% Matrigel (Corning Inc., Corning, NY, cat. 354248) for the first three passages. All PDCs were cultured in complete DMEM/F-12 media containing advanced DMEM/F-12 (Invitrogen, cat. 12634028), 4.9% defined fetal bovine serum, heat inactivated (HyClone Laboratories Inc., Logan, UT, cat. SH30070.03HI), 389 ng/mL hydrocortisone (Sigma-Aldrich, cat. H4001), 9.7 ng/mL human EGF recombinant protein (Invitrogen, cat. PHG0313), 23.4 microg/mL adenine (Sigma-Aldrich, cat. A2786), 97.3 U/mL penicillin-streptomycin (Invitrogen, cat. 15140122), 1.9 mM L-glutamine (Invitrogen, cat. 25030081), and 9.7 microM Y-27632 dihydrochloride (Tocris Bioscience, Bristol, United Kingdom, cat. 1254). The PDCs were cultured in complete DMEM/F12 media without 10 microM Y-27632 dihydrochloride for at least two passages prior to the screen. The established cell lines NCI-H1341 and […] were cultured in DMEM/F-12, HEPES (Invitrogen, cat. 11330032), 5% defined fetal bovine serum (HyClone Laboratories Inc., cat. SH30070.03), ITS premix universal culture supplement [insulin (5 microg/mL), transferrin (5 microg/mL), and selenious acid (5 ng/mL)] […]

Which viability, T/C (compound alone 0.1 µM) does the source give for `CC(CO)NC(=O)c1cc(-c2ccc(Cl)cc2)nn(-c2cnn(C)c2)c1=O` (stereo unspecified) here?
The viability, T/C was 97.8, 91, 86.1, 87.1, 103, 95.2, 89.1, 83.2, 84.6, 92.4, 93.2, 92.6, 96.2, 72.4, 101, 92.7, 94.8, 86, 92.9, 90.9%.

What about the viability, T/C (compound alone 0.316 µM) of the same compound?
Its viability, T/C is 81.3, 88.1, 83.6, 83.9, 96.9, 92.5, 82.8, 77.9 (2×), 85.2, 95.7, 91.6, 75.4, 90.6, 81.5, 102, 90.9, 80.5, 92.2, 80.2, 87.1%.

And the viability, T/C (compound alone 1 µM)?
Its viability, T/C is 83.3, 70.7, 91 (2×), 87.1 (2×), 110, 69, 94.8, 79.8, 100, 77.7, 94.2, 108, 96.1, 63.6, 88.6, 80.8, 89.4, 81, 74.7%.

And the viability, T/C (compound alone 3.16 µM)?
Its viability, T/C is 88, 77.7, 93.4, 96.7, 89.9, 91.3, 72.5, 72.1, 78.4, 78.9, 87.7, 86.4, 82.4, 68.8, 93.5, 92.8, 84, 82.8, 74.4%.

Which IC50 does the source give for `COc1cc(C2c3cc4c(cc3C(OC3OC5COC(C)OC5C(O)C3O)C3COC(=O)C23)OCO4)cc(OC)c1O` (stereo unspecified) here?
The IC50 was 1.53 µM, 836 nM, > 10 µM.

`Cc1ccccc1N=Nc1ccc(NC(=O)c2ccnn2C)c(C)c1` was tested. Which IC50 (NCI-H1341 complex spheroids, drug combinations, percent test/control, run of 07/26/2022) did it give?
Its IC50 is > 10 µM, 8.98 µM, 6.79 µM, 9.82 µM, 9.97 µM.

What about the viability, T/C (compound alone 0.1 µM) of the same compound?
The viability, T/C was 87.3, 89.1 (2×), 93.1, 84.7, 115, 97.7, 86.7, 92.6 (2×), 99.6, 116, 107, 89.4, 88.8, 92.1, 87.9, 85.6, 84.4, 94.5%.

What about the viability, T/C (compound alone 0.316 µM) of the same compound?
Its viability, T/C is 117, 106 (3×), 93.6, 90.9, 98.9, 110, 79.4, 75.5, 78.5, 87.8, 114, 86.3, 83, 88.2, 88.5, 103, 98.6, 89.2%.

What about the viability, T/C (compound alone 1 µM) of the same compound?
Its viability, T/C is 88.2, 84.5, 100, 90.5, 95.9, 81, 83.9, 97.1, 91.2, 96.7, 97.8, 89.3, 106, 87.3, 89.5, 92.4, 93.9, 86, 69.4, 91.9%.

And the viability, T/C (compound alone 3.16 µM)?
Its viability, T/C is 75.9, 71.2, 69.7, 74.7, 75.2, 72.1, 73.3, 58.1, 79.5, 84.4, 83.2, 79.1, 78.1, 72, 67.3, 73.7, 74.9, 73.6, 70.4, 68.5%.

Which IC50 (NCI-H1341 complex spheroids, drug combinations, percent test/control, run of 07/18/2022) does the source give for `Cc1cncc(-c2nc(NCCc3c[nH]c4ccccc34)c3ncn(C(C)C)c3n2)c1` here?
The IC50 was 6.26 µM, 5.93 µM, 4.87 µM, 6.12 µM, > 10 µM, 4.89 µM, 5.27 µM, 4.77 µM, 4.88 µM, 4.91 µM, 7.6 µM, 6.93 µM, 8.48 µM, 6.65 µM, 7.65 µM, 4.08 µM, 6.91 µM, 6.58 µM, 4.78 µM, 2.13 µM, 4.7 µM, 4.82 µM, 3.88 µM.

And the viability, T/C (compound alone 0.1 µM)?
Its viability, T/C is 82.8, 79.4, 89.6, 88.6, 91.2, 91.5, 89.7 (2×), 88.5, 67.9, 83.8, 85.7, 99.1, 111, 87.7, 85, 71.9, 90.3, 89, 73.6%.

And the viability, T/C (compound alone 0.316 µM)?
The viability, T/C was 78.4, 80.4, 84.6, 79.5, 82.1, 86.1 (2×), 85.7, 79.7, 86.5, 80.2, 68.4, 78.8, 105, 82.8, 81, 87.4, 73.5, 77, 88%.

And the viability, T/C (compound alone 1 µM)?
Its viability, T/C is 85.8, 87.5, 94.7, 82.6, 76.2, 75.2, 83.3, 80.1, 86.6, 83.6, 81.3, 68.8, 83, 67, 85.9, 84, 88.8, 88, 84.4%.

And the viability, T/C (compound alone 3.16 µM)?
Its viability, T/C is 78.8 (2×), 75.2, 67.8, 81.6, 82.5, 69.8, 73.2, 66.6, 67.6, 68.3, 79.1, 80.1, 80.6, 77.5, 70.7, 72.2, 86.1, 54.1, 76.8%.

And the viability, T/C (compound alone 10 µM)?
Its viability, T/C is 30, 28.9, 20.3 (2×), 26.5, 58.6, 23.1, 21.5, 20.8, 20.9, 41, 45.1, 37.2 (2×), 45.5, 38.8, 43, 34.4, 35.6, 33.4, 15%.
